Measured values from the supplement of paper PMC4604168 (melanoma cell lines).
The list shows a part of the results. Many values rest on one well or one pass, so single values are uncertain.

What was measured:
Test in all cases: cell count relative to DMSO control; melanoma cells; higher = more viable cells
Details in all cases: library dose: standard library concentration; 72 h
SkMel30 = tested on: SkMel30
SkMel5 = tested on: SkMel5
UACC257 = tested on: UACC257
UACC62 = tested on: UACC62
WM115 = tested on: WM115
WM1716 = tested on: WM1716
WM1745 = tested on: WM1745
WM3526 = tested on: WM3526
WM3619 = tested on: WM3619
WM451Lu = tested on: WM451Lu
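Further: cells treated in 1,536-well plates, then fixed and DAPI-stained, with nuclei counted from automated high-throughput microscope images.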

SMILES	cell count (SkMel30)	cell count (SkMel5)	cell count (UACC257)	cell count (UACC62)	cell count (WM115)	cell count (WM1716)	cell count (WM1745)	cell count (WM3526)	cell count (WM3619)	cell count (WM451Lu)
O=S(=O)(c1ccccc1)N(CC(F)(F)F)c1ccc(C(O)(C(F)(F)F)C(F)(F)F)cc1 + O=c1cc(-c2cccc3c2Sc2ccccc2S3)oc(N2CCOCC2)c1 [KU55933] (first compound 7 µM, partner dose 5 µM)	81.4%	93.4%	93.7%	94.6%	87.1%	108%	125%	77.3%	116%	113%
COc1ccc(COc2ccc(Cc3cnc(N)nc3N)cc2OC)cc1 + CC(C)CCN1c2nc(Nc3cc(F)c(O)c(F)c3)ncc2N(C)C(=O)C1C [BID1870] (first compound 5 µM, partner dose 1 µM)	90.8%	56.3%	91.5%	75%	109%	87.9%	84%	72.1%	63.1%	81.5%
COc1ccc2c(c1)CCC1C2CCC2(C)C(NCCCCCCN3C(=O)C=CC3=O)CCC12 (stereo not given) + Cn1cc(/C=C2\C(=O)Nc3cccnc32)c2ccccc21 [GW441756] (first compound 2 µM, partner dose 2 µM)	112%	62.7%	86.1%	84.3%	76.1%	72.7%	70.8%	83.2%	94.8%	86.9%
N#Cc1c(O)c2c(-c3ccc(-c4ccccc4O)cc3)csc2[nH]c1=O + CC(C)CCN1c2nc(Nc3cc(F)c(O)c(F)c3)ncc2N(C)C(=O)C1C [BID1870] (first compound 10 µM, partner dose 1 µM)	91%	105%	104%	71.2%	106%	89.5%	86.3%	78.6%	64.4%	86.5%
N#Cc1c(O)c2c(-c3ccc(-c4ccccc4O)cc3)csc2[nH]c1=O + CCN(CC)CCCCNc1ncc2cc(-c3cc(OC)cc(OC)c3)c(NC(=O)NC(C)(C)C)nc2n1 [PD173074] (first compound 10 µM, partner dose 0.5 µM)	98.9%	87%	96.6%	84.4%	94.5%	104%	83.7%	96.8%	86.4%	119%
COc1ccc(-c2ccc3c(N4CCOCC4)nc(N4C[C@@H](C)O[C@@H](C)C4)nc3n2)cc1CO + O=c1cc(-c2cccc3c2Sc2ccccc2S3)oc(N2CCOCC2)c1 [KU55933] (first compound 0.1 µM, partner dose 5 µM)	74.8%	64.6%	90.6%	87.5%	94.2%	77.7%	84%	69.1%	46.4%	79%
O=S(=O)(c1ccccc1)N(CC(F)(F)F)c1ccc(C(O)(C(F)(F)F)C(F)(F)F)cc1 + COc1cc(N2CCC(N3CCN(C)CC3)CC2)ccc1Nc1ncc(Cl)c(Nc2ccccc2S(=O)(=O)C(C)C)n1 [NVP-TAE684] (first compound 7 µM, partner dose 0.4 µM)	105%	69.1%	86.2%	72.8%	82.6%	97.9%	42.6%	71.2%	72.8%	76.3%
COc1ccc(COc2ccc(Cc3cnc(N)nc3N)cc2OC)cc1 + COc1cc2ncnc(Nc3ccc(Oc4ccccc4)cc3)c2cc1OC [SrcI1] (first compound 5 µM, partner dose 10 µM)	105%	52.7%	79%	78.1%	74.6%	77.5%	61.6%	66.3%	75.1%	93.3%
COC(=O)c1sccc1S(=O)(=O)Nc1ccc(Nc2ccccc2)cc1OC + CC(C)CCN1c2nc(Nc3cc(F)c(O)c(F)c3)ncc2N(C)C(=O)C1C [BID1870] (first compound 5 µM, partner dose 1 µM)	78.5%	70.9%	65.4%	87%	92.5%	62.3%	107%	54.1%	71.6%	81.4%
c1cc(-c2cnn3cc(-c4ccc(OCCN5CCCCC5)cc4)cnc23)ccn1 [Dorsomorphin] + COc1cc(N2CCC(N3CCN(C)CC3)CC2)ccc1Nc1ncc(Cl)c(Nc2ccccc2S(=O)(=O)C(C)C)n1 [NVP-TAE684] (first compound 2 µM, partner dose 0.4 µM)	83%	45.9%	65.5%	43%	53.7%	78%	37.2%	68.1%	76.6%	70.6%
COc1ccc2c(c1)CCC1C2CCC2(C)C(NCCCCCCN3C(=O)C=CC3=O)CCC12 (stereo not given) + COc1cc2ncnc(Nc3ccc(Oc4ccccc4)cc3)c2cc1OC [SrcI1] (first compound 2 µM, partner dose 10 µM)	75.6%	53.3%	72.2%	58.4%	72.4%	60.3%	56%	42%	51.2%	71.4%
c1cc(-c2cnn3cc(-c4ccc(OCCN5CCCCC5)cc4)cnc23)ccn1 [Dorsomorphin] + Cn1cc(/C=C2\C(=O)Nc3cccnc32)c2ccccc21 [GW441756] (first compound 2 µM, partner dose 2 µM)	51.4%	42.3%	75.4%	53.9%	82.9%	82.9%	40.9%	76.8%	66.7%	69.7%
O=S(=O)(c1ccccc1)N(CC(F)(F)F)c1ccc(C(O)(C(F)(F)F)C(F)(F)F)cc1 + CC(C)CCN1c2nc(Nc3cc(F)c(O)c(F)c3)ncc2N(C)C(=O)C1C [BID1870] (first compound 7 µM, partner dose 1 µM)	85.4%	64%	78.7%	69.9%	92.5%	95%	82.1%	66%	79.6%	85.5%
COC(=O)c1sccc1S(=O)(=O)Nc1ccc(Nc2ccccc2)cc1OC + c1cc(-c2cnn3cc(-c4ccc(OCCN5CCCCC5)cc4)cnc23)ccn1 [Dorsomorphin] (first compound 5 µM, partner dose 2 µM)	87.2%	84.7%	61.8%	62%	67.1%	69%	68.2%	79.7%	70.6%	73.6%
Cc1cc([N+](=O)[O-])ccc1NS(=O)(=O)c1cc(Cl)ccc1Cl + Oc1nc(-c2ccc(C(F)(F)F)cc2)nc2c1CSCC2 [XAV939] (first compound 5 µM, partner dose 10 µM)	72.3%	54.9%	71%	82.3%	89.7%	68.8%	81.5%	66.7%	70.1%	90.1%
COc1ccc(COc2ccc(Cc3cnc(N)nc3N)cc2OC)cc1 + Oc1cc(-c2nc(-c3ccccc3)[nH]c2-c2ccncc2)ccc1Cl [L779450] (first compound 5 µM, partner dose 1 µM)	87.1%	69.8%	85.7%	64.1%	48.5%	68.6%	60.3%	53.7%	82.8%	53.3%
COc1ccc2c(c1)CCC1C2CCC2(C)C(NCCCCCCN3C(=O)C=CC3=O)CCC12 (stereo not given) + CCCCCCCCCCCC1=C(O)C(=O)C=C(O)C1=O [Embelin] (first compound 2 µM, partner dose 6 µM)	101%	81.5%	87.7%	99.2%	77.3%	88.1%	83.6%	89.5%	68.2%	117%
O=C1NC(=O)/C(=C/c2ccc(-c3ccc(F)cc3O)o2)S1 + Cc1cc([N+](=O)[O-])ccc1NS(=O)(=O)c1cc(Cl)ccc1Cl [FH535] (first compound 5 µM, partner dose 5 µM)	80%	63.2%	73.2%	120%	95.5%	73%	71.4%	68.7%	81.9%	81.2%
CCN(CC)CCCCNc1ncc2cc(-c3cc(OC)cc(OC)c3)c(NC(=O)NC(C)(C)C)nc2n1 + COc1cc2ncnc(Nc3ccc(Oc4ccccc4)cc3)c2cc1OC [SrcI1] (first compound 0.5 µM, partner dose 10 µM)	101%	65.3%	101%	57.6%	73.6%	87.1%	90.8%	69.4%	137%	63.8%
COc1ccc2c(c1)CCC1C2CCC2(C)C(NCCCCCCN3C(=O)C=CC3=O)CCC12 (stereo not given) + COc1ccc(-c2ccc3c(N4CCOCC4)nc(N4C[C@@H](C)O[C@@H](C)C4)nc3n2)cc1CO [KU0063794] (first compound 2 µM, partner dose 0.1 µM)	60.4%	59.3%	86.1%	75.6%	72%	86.5%	68.9%	85.6%	54%	78.5%
N#Cc1c(O)c2c(-c3ccc(-c4ccccc4O)cc3)csc2[nH]c1=O + CCCCCCCCCCCC1=C(O)C(=O)C=C(O)C1=O [Embelin] (first compound 10 µM, partner dose 6 µM)	140%	108%	101%	110%	115%	84.7%	102%	103%	99.7%	99.6%
CCN(CC)CCCCNc1ncc2cc(-c3cc(OC)cc(OC)c3)c(NC(=O)NC(C)(C)C)nc2n1 + c1cc(-c2cnn3cc(-c4ccc(OCCN5CCCCC5)cc4)cnc23)ccn1 [Dorsomorphin] (first compound 0.5 µM, partner dose 2 µM)	83.7%	73%	94%	113%	72.8%	85.6%	58.2%	91.1%	74.6%	71.4%
CCN(CC)CCCCNc1ncc2cc(-c3cc(OC)cc(OC)c3)c(NC(=O)NC(C)(C)C)nc2n1 + CC(C)CCN1c2nc(Nc3cc(F)c(O)c(F)c3)ncc2N(C)C(=O)C1C [BID1870] (first compound 0.5 µM, partner dose 1 µM)	78.9%	66.8%	81.3%	69.2%	95.7%	67.6%	96.3%	59.5%	70.8%	74.8%
